The values that follow come from patent US12709641B2.

The target in this assay is wild type tau (Homo sapiens (Human)), P10636. Nature of the assay: Octet. The note with it: remark: other sources report otherwise. On the technique in general: BLI is a label-free optical method that tracks binding on a fibre tip over time.

B1: V0009 (antibody, V domains shown)
VH: EVQLVESGGALVQPGGSLSLSCAASGFTFTDYYMSWVRQPPGKALEWLALIRNKAKGFTTEYSASVKGRFTISRDNSQSILLFQMNDLRADDSATYYCVRDINYWGQGTTLTVSS
VL: DIVMSQSPSSLAVSVGEKVTMS[sequence of about 80 residues not given]FGGGTKLEIK
As for B1, the Kd (commonly the equilibrium constant for the complex coming apart) is above 200 nM.
